# From the supplement of paper PMC8728848
# This is one part of the list.
# Tests used:
# Experiment in all cases: glycan array binding signal (z-score within array); higher = stronger binding
# Conditions in all cases: glycan notation: IUPAC condensed, linker removed
# [1] = target: Fuc(a1-2)Gal
# In short: (§1)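 Arrays were curated from the Consortium for Functional Glycomics database, 3228 in total, and kept only where the protein sequence was available. Binding is expressed as a within-array Z-score. This score was averaged across arrays of the same protein sequence at different concentrations or buffers and across linkers, and negative values can be read as non-binding.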
# [2] = target: Fuc(a1-2)Gal(b1-3)GalNAc
# In short: as §1
# [3] = target: Fuc(a1-2)Gal(b1-3)GalNAc(a1-3)[Fuc(a1-2)]Gal(b1-4)Glc
# In short: as §1
# [4] = target: Fuc(a1-2)Gal(b1-3)GalNAc(a1-3)[Fuc(a1-2)]Gal(b1-4)GlcNAc
# In short: as §1
# [5] = target: Fuc(a1-2)Gal(b1-3)GalNAc(b1-3)Gal
# In short: as §1
# [6] = target: Fuc(a1-2)Gal(b1-3)GalNAc(b1-3)Gal(a1-4)Gal(b1-4)Glc
# In short: as §1
# [7] = target: Fuc(a1-2)Gal(b1-3)GalNAc(b1-4)[Neu5Ac(a2-3)]Gal(b1-4)Glc
# In short: as §1
# [8] = target: Fuc(a1-2)Gal(b1-3)GlcNAc
# In short: as §1
# [9] = target: Fuc(a1-2)Gal(b1-3)GlcNAc(b1-2)Man(a1-3)[Fuc(a1-2)Gal(b1-3)GlcNAc(b1-2)Man(a1-6)]Man(b1-4)GlcNAc(b1-4)GlcNAc
# In short: as §1
# [10] = target: Fuc(a1-2)Gal(b1-3)GlcNAc(b1-2)Man(a1-3)[Fuc(a1-2)Gal(b1-3)GlcNAc(b1-2)Man(a1-6)]Man(b1-4)GlcNAc(b1-4)[Fuc(a1-6)]GlcNAc
# In short: as §1
# [11] = target: Fuc(a1-2)Gal(b1-3)GlcNAc(b1-3)Gal(b1-4)Glc
# In short: as §1
# [12] = target: Fuc(a1-2)Gal(b1-3)GlcNAc(b1-3)GalNAc
# In short: as §1
# [13] = target: Fuc(a1-2)Gal(b1-3)GlcNAc(b1-3)[Fuc(a1-2)Gal(b1-3)GlcNAc(b1-6)]GalNAc
# In short: as §1
# [14] = target: Fuc(a1-2)Gal(b1-3)GlcNAc(b1-3)[Gal(b1-4)GlcNAc(b1-6)]Gal(b1-4)Glc
# In short: as §1
# [15] = target: Fuc(a1-2)Gal(b1-3)GlcNAc(b1-3)[Neu5Ac(a2-6)Gal(b1-4)GlcNAc(b1-6)]Gal(b1-4)Glc
# In short: as §1
# [16] = target: Fuc(a1-2)Gal(b1-3)GlcNAc6S
# In short: as §1
# [17] = target: Fuc(a1-2)Gal(b1-3)[Fuc(a1-4)]GlcNAc
# In short: as §1
# [18] = target: Fuc(a1-2)Gal(b1-3)[Fuc(a1-4)]GlcNAc(b1-2)Man(a1-3)[Fuc(a1-2)Gal(b1-3)[Fuc(a1-4)]GlcNAc(b1-2)Man(a1-3)]Man(b1-4)GlcNAc(b1-4)GlcNAc
# In short: as §1
# [19] = target: Fuc(a1-2)Gal(b1-3)[Fuc(a1-4)]GlcNAc(b1-2)Man(a1-3)[Fuc(a1-2)Gal(b1-3)[Fuc(a1-4)]GlcNAc(b1-2)Man(a1-6)]Man(b1-4)GlcNAc(b1-4)[Fuc(a1-6)]GlcNAc(b1-4)[Fuc(a1-6)]GlcNAc
# In short: as §1
# [20] = target: Fuc(a1-2)Gal(b1-3)[Fuc(a1-4)]GlcNAc(b1-3)[Fuc(a1-3)[Gal(b1-4)]GlcNAc(b1-6)]Gal(b1-4)Glc
# In short: as §1
# [21] = target: Fuc(a1-2)Gal(b1-3)[Fuc(a1-4)]GlcNAc(b1-3)[Gal(b1-4)GlcNAc(b1-6)]Gal(b1-4)Glc
# In short: as §1
# [22] = target: Fuc(a1-2)Gal(b1-4)Fuc(a1-3)]GlcNAc(b1-2)Man(a1-3)[Fuc(a1-2)Gal(b1-4)[Fuc(a1-3)]GlcNAc(b1-2)Man(a1-6)]Man(b1-4)GlcNAc(b1-4)GlcNAc
# In short: as §1
# [23] = target: Fuc(a1-2)Gal(b1-4)Glc
# In short: as §1
# [24] = target: Fuc(a1-2)Gal(b1-4)Glc6S
# In short: as §1
# [25] = target: Fuc(a1-2)Gal(b1-4)GlcNAc
# In short: as §1
# [26] = target: Fuc(a1-2)Gal(b1-4)GlcNAc(b1-2)Man
# In short: as §1
# [27] = target: Fuc(a1-2)Gal(b1-4)GlcNAc(b1-2)Man(a1-3)[Fuc(a1-2)Gal(b1-4)GlcNAc(b1-2)Man(a1-6)]Man(b1-4)GlcNAc(b1-4)GlcNAc
# In short: as §1
# [28] = target: Fuc(a1-2)Gal(b1-4)GlcNAc(b1-2)Man(a1-3)[Fuc(a1-2)Gal(b1-4)GlcNAc(b1-2)Man(a1-6)]Man(b1-4)GlcNAc(b1-4)[Fuc(a1-6)]GlcNAc
# In short: as §1
# [29] = target: Fuc(a1-2)Gal(b1-4)GlcNAc(b1-2)[Fuc(a1-2)Gal(b1-4)GlcNAc(b1-4)]Man(a1-3)[Fuc(a1-2)Gal(b1-4)GlcNAc(b1-2)Man(a1-6)]Man(b1-4)GlcNAc(b1-4)GlcNAc
# In short: as §1
# [30] = target: Fuc(a1-2)Gal(b1-4)GlcNAc(b1-3)Gal(b1-4)GlcNAc
# In short: as §1
binder,measurement,setting,value
"FliC (Pseudomonas aeruginosa), P72151 (protein) MALTVNTNIASLNTQRNLNASSNDLNTSLQRLTTGYRINSAKDDAAGLQISNRLSNQISGLNVATRNANDGISLAQTAEGALQQSTNILQRIRDLALQSANGSNSDADRAALQKEVAAQQAELTRISDTTTFGGRKLLDGSFGTTSFQVGSNAYETIDISLQNASASAIGSYQVGSNGAGTVASVAGTATASGIASGTVNLVGGGQVKNIAIAAGDSAKAIAEKMDGAIPNLSARARTVFTADVSGVTGGSLNFDVTVGSNTVSLAGVTSTQDLADQLNSNSSKLGITASINDKGVLTITSATGENVKFGAQTGTATAGQVAVKVQGSDGKFEAAAKNVVAAGTAATTTIVTGYVQLNSPTAYSVSGTGTQASQVFGNASAAQKSSVASVDISTADGAQNAIAVVDNALAAIDAQRADLGAVQNRFKNTIDNLTNISENATNARSRIKDTDFAAETAALSKNQVLQQAGTAILAQANQLPQAVLSLLR",glycan array binding signal (z-score),[1],-0.212
same,glycan array binding signal (z-score),[2],-0.137
same,glycan array binding signal (z-score),[3],-0.172
same,glycan array binding signal (z-score),[4],-0.049
same,glycan array binding signal (z-score),[5],-0.022
same,glycan array binding signal (z-score),[6],-0.201
same,glycan array binding signal (z-score),[7],-0.034
same,glycan array binding signal (z-score),[8],-0.166
same,glycan array binding signal (z-score),[9],-0.133
same,glycan array binding signal (z-score),[10],-0.147
same,glycan array binding signal (z-score),[11],-0.154
same,glycan array binding signal (z-score),[12],-0.187
same,glycan array binding signal (z-score),[13],-0.15
same,glycan array binding signal (z-score),[14],-0.067
same,glycan array binding signal (z-score),[15],2.82
same,glycan array binding signal (z-score),[16],-0.18
same,glycan array binding signal (z-score),[17],-0.214
same,glycan array binding signal (z-score),[18],0.056
same,glycan array binding signal (z-score),[19],-0.208
same,glycan array binding signal (z-score),[20],-0.205
same,glycan array binding signal (z-score),[21],-0.212
same,glycan array binding signal (z-score),[22],0.104
same,glycan array binding signal (z-score),[23],-0.017
same,glycan array binding signal (z-score),[24],-0.226
same,glycan array binding signal (z-score),[25],-0.184
same,glycan array binding signal (z-score),[26],-0.172
same,glycan array binding signal (z-score),[27],0.42
same,glycan array binding signal (z-score),[28],-0.125
same,glycan array binding signal (z-score),[29],-0.117
same,glycan array binding signal (z-score),[30],-0.11
